Measured values taken from PubChem BioAssay AID1030 (National Center for Advancing Translational Sciences (NCATS), 2008).
The campaign covered roughly 220,000 compounds. About 16,000 (7.3%) were called active. Inconclusive means that the source gave no clear call. Such entries were picked first, then a sample of the others. Calls follow the shape of the dose curve; as a rule, active = well fitted inhibition curve with a large enough effect (not every such curve was filed as active); inconclusive = small, poorly fitted or top-dose-only effect, or another doubt; inactive = no such curve, though single readings can be large or run the other way. No potency is given beside an inconclusive call; the fits are too rough.

target: Aldehyde dehydrogenase 1A1 (Homo sapiens) (UniProt P00352); assay: qHTS Assay for Inhibitors of Aldehyde Dehydrogenase 1 (ALDH1A1); settings: Purified ALDH1A1, NADH fluorescence, propionaldehyde substrate; series mostly up to 75.3 µM
Potency is read from the fitted curve at half-maximal effect; tags tell the direction and shape of the fitted curve.

UniProt P00352, sequence (P00352 whole entry, looked up): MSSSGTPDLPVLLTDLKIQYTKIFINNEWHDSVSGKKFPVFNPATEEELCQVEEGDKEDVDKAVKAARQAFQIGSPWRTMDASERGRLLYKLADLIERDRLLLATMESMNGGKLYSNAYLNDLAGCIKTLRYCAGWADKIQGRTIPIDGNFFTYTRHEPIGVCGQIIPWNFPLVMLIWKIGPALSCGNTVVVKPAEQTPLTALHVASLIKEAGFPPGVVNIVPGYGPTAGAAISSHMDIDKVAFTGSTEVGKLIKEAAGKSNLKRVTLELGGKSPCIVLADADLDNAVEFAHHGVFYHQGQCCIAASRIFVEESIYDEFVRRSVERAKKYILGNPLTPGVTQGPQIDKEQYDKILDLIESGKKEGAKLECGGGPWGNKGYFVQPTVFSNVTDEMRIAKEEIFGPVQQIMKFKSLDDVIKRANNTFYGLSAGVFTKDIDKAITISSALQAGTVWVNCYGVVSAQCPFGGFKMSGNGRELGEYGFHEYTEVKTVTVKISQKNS

Row | SMILES | Potency
1 | Cc1ccc(N(CC(O)COCc2ccco2)S(=O)(=O)c2ccc(C)cc2)cc1 (stereo not given) | active: 3.16 µM
2 | CCOC(=O)c1cc(-c2ccccc2)sc1NC(=O)CSc1nnc(N)s1 | inactive
3 | Cc1cc(/C=N/NC(=O)Cn2c3ccccc3c(=O)c3ccccc32)c(C)n1-c1ccc(Cl)cc1 | inconclusive [inhibitor, single point]
4 | Cc1ccc(N/N=C2/CCCNC2=O)cc1 | active: 22.4 µM
5 | CC1CC1C(=O)OCC(=O)NC(=O)NC12CC3CC(CC(C3)C1)C2 (stereo not given) | inactive
6 | O=C(CSc1ccsc1[N+](=O)[O-])Nc1cccc(F)c1 | inconclusive [inhibitor, single point]
7 | Cc1ccc(S(=O)(=O)N2CCN(CC(=O)N/N=C/c3ccc(Br)s3)CC2)cc1 | inactive
8 | COc1ccc(NC(=S)NCCc2c[nH]c3ccccc23)cc1 | inactive
9 | COc1ccc(/C=C/C(=O)Nc2cc(C(F)(F)F)ccc2Cl)cc1OC | inconclusive [inhibitor, single point]
10 | CCOc1cccc(-c2cc(C(=O)N/N=C/c3ccc(OC)c(CN4CCOCC4)c3)c3ccccc3n2)c1 | inconclusive [inhibitor, single point]
11 | Cc1cc(N2CCCCC2)nc2ccc(NC(=O)c3ccc(Br)o3)cc12 | inconclusive [inhibitor, single point]
12 | O=c1c([N+](=O)[O-])cccn1Cc1cccc(Cl)c1 | inactive
13 | Cc1ccc(NS(=O)(=O)c2ccc(CCC(=O)NCc3cccnc3)cc2)cc1 | active: 8.91 µM
14 | Cc1cc(C)c2c(N)c(C(=O)NNC(=O)c3ccccc3)sc2n1 | inconclusive [inhibitor, single point]
15 | COC(=O)[C@@H]1C[C@H]1[C@@H](NC(=O)c1cc(C)on1)c1ccccc1 | inactive
16 | CC(C)Sc1nc(NCc2ccco2)c2c3c(sc2n1)COC(C)(C)C3 | inconclusive [inhibitor, single point]
17 | CCn1nnc(NC(=O)CSc2ccc(Cl)cc2)n1 | inactive
18 | Clc1ccccc1-c1nn2c(-c3ccncc3)nnc2s1 | active: 11.2 µM
19 | O=C(NCCc1csc(-c2ccccc2)n1)c1ccc(Br)o1 | inactive
20 | CCOCCCNc1nc(C)nc2c1nnn2Cc1c(F)cccc1Cl | active: 8.91 µM
21 | CCOC(=O)Nc1ccc(S(=O)(=O)N(C)C(C)C)cc1 | inconclusive [inhibitor, partial curve]
22 | O=C(c1ccc(C(=O)N2CCOCC2)nc1)N1CCOCC1 | inactive
23 | CCCCCC(=O)Nc1cc2[nH]c(=O)cc(COC)c2cc1C | inconclusive [inhibitor, partial curve]
24 | COc1ccc(C(=O)NCC(=O)OCC(=O)NCc2cccs2)cc1 | inconclusive [inhibitor, partial curve]
25 | O=C(NC1CCCc2ccccc21)C1CCN(S(=O)(=O)c2cnc[nH]2)CC1 (stereo not given) | inconclusive [inhibitor, single point]

Row | SMILES | Potency
26 | CC(C)C(=O)N(c1ccc2oc(=O)sc2c1)S(=O)(=O)c1cccs1 | inconclusive [inhibitor, partial curve]
27 | Cc1ccc(NC(=O)Cn2cnc3c(nnn3Cc3ccc(F)cc3)c2=O)cc1 | inactive
28 | COc1cc(OC)c(NS(=O)(=O)c2cccc(C(=O)OCC(=O)NCC3CCCO3)c2)cc1Cl (stereo not given) | inactive
29 | Cc1nc(SCn2nnc3ccccc3c2=O)c2c(C)c(C)sc2n1 | inactive
30 | Cc1ccc(-c2nc3ccccc3s2)cc1NC(=S)NC(=O)c1cccc2ccccc12 | inactive
31 | NNC(=O)CS(=O)(=O)c1ccc(Cl)cc1 | inconclusive [inhibitor, partial curve]
32 | NCCc1nnc(SCc2ccc(F)cc2)o1 | inactive
33 | CC(C)NCCCCOc1cccc(Br)c1 | inconclusive [inhibitor, partial curve]
34 | O=S(=O)(NC1CCCC1)c1ccc(S(=O)(=O)N2CCCN(Cc3ccccc3)C2)cc1 | inconclusive [inhibitor, single point]
35 | COc1ccc2c(C(=O)CN3CC(C)OC(C)C3)c[nH]c2c1 (stereo not given) | inconclusive [inhibitor, single point]
36 | CCc1ccc(CCC(=O)Nc2sc3c(c2C#N)CCCC3)o1 | inconclusive [inhibitor, single point]
37 | CC(=O)c1ccc(OCc2ccc(Oc3c(Cl)cccc3[N+](=O)[O-])cc2)cc1 | inactive
38 | Cn1c(=O)c2c(nc(CN3CCN(CCO)CC3)n2Cc2cccc3ccccc23)n(C)c1=O | active: 4.47 µM
39 | Cc1ccn2c(CNCCn3cccn3)c(C(=O)N3CCCCCC3)nc2c1 | inconclusive [inhibitor, partial curve]
40 | Cc1ccc(C)c(N2CCN(c3cnn(-c4nc5ccccc5s4)c(=O)c3Cl)CC2)c1 | inactive
41 | CCn1cc(C(=O)OCC(=O)c2ccc(Cl)cc2)c(=O)c2ccc(C)nc21 | inconclusive [inhibitor, single point]
42 | COc1ccc(OC)c(NC(=O)C(Sc2ccccc2)c2ccccc2)c1 (stereo not given) | inconclusive [inhibitor, single point]
43 | Cc1onc(C(=O)Nc2sc3c(c2C#N)CCCC3)c1[N+](=O)[O-] | active: 7.08 µM
44 | COc1ccc(C(CC(=O)Nc2ccccc2OC)n2cccc2)cc1 (stereo not given) | inactive
45 | Cc1ccccc1NC(=S)/C(=C(\[O-])c1ccc(C)c([N+](=O)[O-])c1)[n+]1ccccc1 | inactive
46 | C[C@H](NC(=O)c1nc[nH]c1C(=O)N[C@H](C)c1ccccc1)C(=O)OC(C)(C)C | inactive
47 | COc1ccccc1CN=Cc1[nH]c2ccc(Br)c(Cl)c2c1O | active: 0.794 µM
48 | O=C(NC(=S)Nc1cc(-c2nc3ccccc3[nH]2)ccc1Cl)c1ccc2c(c1)OCO2 | active: 8.91 µM
49 | CC(C)C(=O)Nc1ccc2c(c1)C(=O)N(CCC(=O)O)C2=O | inconclusive [inhibitor, partial curve]
50 | CN(c1ccccc1)c1nc(N2CCCC2)nc(-n2ccnc2)n1 | inactive
